# Results as given in the supplement of paper PMC12217912.
# Some of the results follow. Sequences were assembled here from the parent chain. Inactive controls read about 0.05.
# B1: TEV protease; numbered along this chain (parent)
# chain: MGESLFKGPRDYNPISSSICHLTNESDGHTTSLYGIGFGPFIITNKHLFRRNNGTLVVQSLHGVFKVKDTTTLQQHLVDGRDMIIIRMPKDFPPFPQKLKFREPQREERICLVTTNFQTKSMSSMVSDTSCTFPSGDGIFWKHWIQTKDGQCGSPLVSTRDGFIVGIHSASNFTNTNNYFTSVPKNFMELLTNQEAQQWVSGWRLNADSVLWGGHKVFMVKPEEPFQPVKEATQL
# Variants of: B1
# Experiment: raw area under fraction-flipped curve 0-4 h after induction (AUC4h, not background-subtracted), DNA-recorder readout of cleavage of the substrate (dimensionless); higher = more cleavage of the substrate by the protease variant
# Details: temperature: 34 °C; time window: 0-4 h after rhamnose induction
# Method: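 In vivo DNA recorder in E. coli TOP10(DE3) ΔrhaA at 34 °C. Each TEVp single-site mutant (parent TEVp 0) is paired with a single-site variant of the 7-mer TEVs (canonical ENLYFQ|S). The substrate sits between flexible linkers in a Bxb1-sfGFP-TEVs-SsrA fusion, so cleavage stabilises Bxb1 and speeds flipping of a recombination array, read by NGS. The value is the raw area under the fraction-flipped curve over 0-4 h after rhamnose induction (AUC4h), with ≥20 reads per time point. It is not background-subtracted; inactive controls average about 0.047.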
# 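Further: Bxb1 expression induced with 0.2% (w/v) L-rhamnose at OD600 near 0.5, cultures sampled hourly, flipped fraction per protease–substrate barcode pair counted by paired-end Illumina sequencing.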
Variant,area with substrate ENCYFQS,area with substrate ENDYFQS,area with substrate ENEYFQS,area with substrate ENFYFQS,area with substrate ENHYFQS,area with substrate ENIYFQS,area with substrate ENKYFQS,area with substrate ENNYFQS,area with substrate ENQYFQS,area with substrate ENSYFQS,area with substrate ENTYFQS,area with substrate ENVYFQS,area with substrate ENWYFQS,area with substrate ENAYFQS,area with substrate ENMYFQS,area with substrate ENYYFQS,area with substrate ENGYFQS,area with substrate ENRYFQS,area with substrate ENPYFQS
L56T,0.0482,0.0495,0.047,0.0817,0.0601,0.0844,0.0494,0.0504,0.0604,0.0597,0.0596,0.0664,0.053,–,–,–,–,–,–
A232W,0.0687,–,–,0.057,0.0463,–,–,–,0.059,0.0583,0.0643,–,–,0.0809,0.0731,0.0621,–,–,–
A232N,0.0582,0.0532,–,–,0.0601,0.152,0.0646,–,0.0569,0.0612,0.0372,–,–,0.0756,–,–,0.0661,0.0584,–
A232T,0.0634,0.0619,–,0.0419,0.0569,0.172,–,–,0.0618,0.0511,–,–,–,0.0686,0.112,–,–,–,0.0439
A232S,0.0699,–,0.0583,0.0553,0.0709,0.12,0.0647,0.0314,0.0604,0.059,–,0.0843,0.0618,0.0718,–,–,–,0.027,–
A232H,–,0.0596,0.0515,–,0.0529,–,0.0736,0.0597,0.0505,–,–,0.0856,–,0.0575,–,–,0.0674,–,0.0716
A232C,–,–,0.103,0.0654,0.0514,–,–,–,0.0634,0.0696,0.0558,0.0499,0.0532,0.0574,0.0023,–,–,0.0551,0.0793
A232V,0.0724,0.0543,–,–,–,–,–,0.0624,–,0.0635,0.0624,0.079,–,0.069,–,–,0.0494,–,0.0568
P222H,0.0588,0.0689,0.0549,–,0.103,–,–,0.054,–,0.0525,0.0409,0.062,0.0466,0.0442,–,–,–,0.0485,0.0893
V220R,0.0782,0.0626,0.0593,0.0632,0.0553,–,–,0.0675,0.0602,0.0609,–,0.0654,0.0658,0.07,–,0.0574,0.0678,0.056,0.0463
G8S,0.0706,0.0688,–,–,0.0467,–,–,0.0652,0.0634,0.0754,–,0.0756,0.0576,–,0.0642,–,–,0.0808,–
S32I,0.0713,0.0554,0.0521,–,0.0549,–,–,0.0679,–,0.051,–,0.0681,0.0489,–,0.0697,0.0619,0.0686,0.0626,0.0673
K221R,–,0.0576,0.069,0.0467,–,–,0.0592,0.0591,0.0619,0.0756,0.0663,0.0806,0.0502,0.0689,0.0753,0.0538,0.0554,0.0579,0.0709
S16Y,0.0651,0.108,0.0717,–,–,0.0891,0.0627,0.0607,0.0708,0.0678,–,–,0.0468,–,–,–,0.0558,–,–
S16A,0.0634,0.0543,0.0484,0.0574,0.0525,0.104,0.0404,0.0656,0.062,0.0622,–,0.0795,–,–,0.0748,0.0661,–,–,0.0649
